Laboratory results taken from PubChem BioAssay (NCI).
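All cell lines were grown in 96-well plates and treated with compound for 48 hours. Abbreviation: GI50, concentration required for 50% inhibition of growth. TGI: concentration producing complete growth inhibition.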

These compounds were tested on NCI-H322M lung (assay: inhibition of tumour cell growth, NCI panel, 48 h).

SMILES | GI50 [µM] | TGI [µM]
C=C1CC[C@@H]2[C@]3(C)COC(c4cn(-c5ccccc5)nc4-c4ccccc4)O[C@@H]3CC[C@@]2(C)[C@@H]1C/C=C1/C(=O)OC[C@H]1O (stereo partly drawn) | 3.35 | 14
CC(C)c1sc(NC(=O)c2cc(NC(=O)c3cc(NC(=O)c4cscn4)cn3C)cn2C)nc1C(=O)NCCCN(C)C | 3.66 | 15.4
CC[C@]12C=CCN3CC[C@@]4(c5ccc(OC)cc5N(C)[C@H]4[C@@](O)(C(=O)OC)[C@@H]1OC(=O)CCC[P+](c1ccc(C)cc1)(c1ccc(C)cc1)c1ccc(C)cc1)[C@@H]32 | 0.649 | 1.95
CNC(=O)c1cccc(NC(=O)c2ccc3c(c2)nnn3/C(C#N)=C/c2ccccn2)c1 | 19.4 | 47.6
